Experimental data from PubChem BioAssay AID463173 (ICCB-Longwood Screening Facility, Harvard Medical School, 2010).
Hit rate of the full screen: of about 52,000 compounds, about 4,300 (8.3%) were called active. No stated cut-off is given here; in the data, active means survival mostly below about 52% (no sharp cut-off); inactive means mostly above about 56%. The list shows a part of the results.

These compounds were tested on DeltatarO mutant (assay: S. aureus survival, RN4220 and DeltatarO strains – OD600, teichoic acid synthesis inhibitors, primary screen (AID 463173)). Details: S. aureus RN4220 wild type/DeltatarO growth, OD600, 18 h, stronger effect = lower value, screened at 18.75 µg/mL (by protocol).

Row | SMILES | survival
1 | COc1ccccc1N(CC(=O)NCCSCc1ccccc1Cl)S(C)(=O)=O | inactive: 59%
2 | O=C(Nc1ccccc1)N1CCc2ccccc21 | inactive: 74%
3 | CCC(=O)N1N=C(c2ccc(OC)cc2)CC1c1cn(-c2ccccc2)nc1-c1cccs1 (stereo not given) | inactive: 148%
4 | O=C(Cn1c(=O)n(Cc2nc(-c3ccccc3)no2)c(=O)c2cc3c(cc21)OCO3)Nc1ccc(Cl)cc1 | inactive: 89%
5 | Cc1ccc(C)c(N2CCN(c3ccc(NC(=O)c4cccs4)cc3C(=O)O)CC2)c1 | inactive: 126%
6 | OC1CCN(Cc2nnnn2Cc2ccccc2)CC1 | inactive: 101%
7 | CCc1ccc(NC(=O)CC2C(=O)OCCN2CC)cc1 (stereo not given) | active: 5%
8 | S=c1n(CN2CCCCC2)c2ccccc2n1CN1CCCCC1 | inactive: 106%
9 | CCOC(=O)c1ccc(N2C(=O)c3n[nH]c(-c4cccs4)c3C2c2cccc(F)c2)cc1 (stereo not given) | inactive: 105%
10 | CCOc1ccccc1NC(=O)C(CC(C)C)NS(=O)(=O)c1ccc2c(c1)CCN2C(C)=O (stereo not given) | inactive: 78%
11 | CCc1ccccc1NC(=O)Cn1ncc2c(C)n(Cc3ccccc3F)c(C)c2c1=O | inactive: 86%
12 | CC(C)CNC(=O)CCSc1nc(-c2ccc3c(c2)OCO3)cc(C(F)(F)F)n1 | inactive: 68%
13 | COc1cc(Br)c(C2CC(=O)Nc3cc(OC)c(OC)c(OC)c32)cc1OC (stereo not given) | inactive: 96%
14 | CC1CCc2c(sc(NC(=O)CCCOc3ccc(C(C)(C)C)cc3)c2C(N)=O)C1 (stereo not given) | inactive: 60%
15 | CCOc1ccc(-n2c(=O)c3c(C)c(C)sc3n(CC(=O)c3ccccc3)c2=O)cc1 | inactive: 190%
16 | CCN(CC)CCCNC(=O)c1c(C)oc2ncn(CC(C)C)c(=O)c12 | inactive: 70%
17 | Cn1c(=O)n(C)c2cc(NS(=O)(=O)c3ccc(Br)cc3)c(NCc3ccccc3)cc21 | inactive: 57%
18 | CCc1ccc(-n2nc(C)c3c(C)cc(=O)n(CC(=O)Nc4ccc(C)c(F)c4)c32)cc1 | inactive: 116%
19 | CCNc1nnc(-c2ccccc2)s1 | inactive: 84%
20 | CN(C)c1ccc(NC(=O)CCSc2nc(-c3ccco3)cc(C(F)(F)F)n2)cc1 | inactive: 51%
21 | O=C(CN1C(=O)COc2ccc(S(=O)(=O)N3CCCCCC3)cc21)N1CCN(c2cccc(Cl)c2)CC1 | inactive: 95%
22 | CCOC(=O)c1c(NC(=O)CN(CC)CC)sc2c1CCC/C2=N\O | inactive: 65%
23 | CC(C)(C)OC(=O)N1CCC(c2c(C(=O)O)cnn2-c2ccc(F)cc2F)CC1 | inactive: 87%

Row | SMILES | survival
24 | CCNC(=O)NC1(C(=O)Nc2ccc3c(c2)OCCO3)CCCCC1 | inactive: 99%
25 | O=C(CSc1nc(-c2ccccc2)[nH]c1-c1ccc(F)cc1)NC1CCCC1 | inactive: 67%
26 | CCC(=O)N1CCc2cc(S(=O)(=O)NC(Cc3ccccc3)C(=O)Nc3ccc(Cl)cc3)ccc21 (stereo not given) | inactive: 66%
27 | CCCC(=O)Nc1c(C(=O)N2CCN(c3ccccc3)CC2)oc2ccccc12 | inactive: 85%
28 | COc1ccc(CCNC(=O)c2cc3cccc4c3n2CC(C)S4)c(OC)c1OC (stereo not given) | inactive: 76%
29 | CC(C)c1ccc(S(=O)(=O)Nc2cc3c(cc2NCc2ccccc2)n(C)c(=O)n3C)cc1 | active: 39%
30 | Cc1ccc(C(=O)NC2CCN(C(=O)NC3CCCCC3)CC2)cc1 | inactive: 71%
31 | CCc1ccccc1NC(=O)C1=CC(c2ccc3c(c2)OCO3)=NS(=O)(=O)N1C | inactive: 68%
32 | CCOc1ccccc1NC(=O)Cn1c(=O)n(Cc2ccco2)c(=O)c2cccnc21 | inactive: 75%
33 | CC(C)(C)c1ccc(C(=O)Nc2ccc3nc(SCC(=O)N4CCCC4)sc3c2)cc1 | inactive: 80%
34 | CCc1ccccc1N(C)C(=O)c1cc2c(s1)-c1c(C)cccc1OC2 | inactive: 60%
35 | Cc1ccc(Cn2c(C)c(CNCc3ccccc3F)c(C(=O)O)c2C)cc1 | inactive: 86%
36 | COC(=O)c1cccc(S(=O)(=O)N2CCOCC2)c1 | inactive: 100%
37 | CC(C)NS(=O)(=O)c1ccc(OCC(=O)N2CCN(c3cccc(Cl)c3)CC2)cc1 | inactive: 95%
38 | COc1cc(C2C(C(=O)Nc3ccccc3)=C(C)Nc3nc(SCC(=O)c4ccc(C)cc4)nn32)ccc1O (stereo not given) | inactive: 90%
39 | COC(=O)c1c(NC(=O)CCCOc2cccc(C)c2)sc2c1CCC(C)C2 (stereo not given) | active: 10%
40 | CCc1ccc(S(=O)(=O)c2nnn3c2nc(N2CCN(CC)CC2)c2sccc23)cc1 | inactive: 81%
41 | COc1ccccc1C(=O)Nc1ccc(-c2nc3cc(C)cc(C)c3o2)cc1 | inactive: 134%
42 | Cc1ccc(NC(=O)CSc2nc3ccc(NC(=O)c4cccc(Cl)c4)cc3s2)c(C)c1 | inactive: 82%
43 | CCOC(=O)c1ccc(N2C(=O)c3n[nH]c(-c4ccco4)c3C2c2cccc(F)c2)cc1 (stereo not given) | active: 12%
44 | Fc1ccc(-c2nnc(CN3CCN(c4ccccn4)CC3)o2)cc1 | inactive: 83%
45 | O=C(NCc1ccco1)c1nc2c(nnn2Cc2cccc(Cl)c2)c(=O)[nH]1 | inactive: 101%
46 | CCOC(=O)c1ccc(NC(=O)NC2CC3CCC(C2)N3C(=S)NCc2ccco2)cc1 (stereo not given) | inactive: 102%

Row | SMILES | survival
47 | CCCNS(=O)(=O)c1ccc(CCC(=O)NCC2CCCO2)cc1 (stereo not given) | inactive: 89%
48 | O=C1c2ccccc2C(=O)N1c1ncn[nH]1 | inactive: 94%
49 | CC1Cc2ccccc2N1C(=O)CSc1nnnn1Cc1ccccc1 (stereo not given) | inactive: 91%
50 | O=C(NCc1cccc(Cl)c1)c1ccc2c(c1)nc1n2CCOC1 | inactive: 84%
51 | CC(=O)c1ccc(NC(=O)c2cn(C)c(=O)c3ccccc23)cc1 | inactive: 72%
52 | CCn1c(SC)nnc1C1CCCN(Cc2ccccc2)C1 (stereo not given) | inactive: 100%
53 | CN1C(=O)c2ccccc2Sc2ccc(NC(=O)NCc3ccccc3Br)cc21 | inactive: 51%
54 | O=C(C1CCCN(S(=O)(=O)c2cccs2)C1)N1CCN(c2ccccc2F)CC1 (stereo not given) | inactive: 85%
55 | O=C(Nc1ccc(F)cc1)N1CCCC(c2nc3c(nnn3Cc3ccccc3Cl)c(=O)[nH]2)C1 (stereo not given) | inactive: 88%
56 | Cc1nc2sc(C)c(C)n2c(=O)c1S(=O)(=O)NCCc1ccc(Cl)cc1 | inactive: 118%
57 | COc1cccc(CN2C(=O)C3(SCC(=O)N3c3ccc(F)cc3)c3ccccc32)c1 (stereo not given) | inactive: 74%
58 | COc1ccc(-c2nc3c(c(SCC(=O)Nc4cc(C)cc(C)c4)n2)Cc2c(CO)cnc(C)c2O3)cc1 | inactive: 80%
59 | CSc1ccc(CCNC(=O)c2ccc3c(c2)nc2n3CCC(C)C2)cc1 (stereo not given) | inactive: 83%
60 | CCOCCc1nn2c(=O)cc(COC(=O)c3ccccc3NC(=O)c3cccs3)nc2s1 | inactive: 58%
61 | CCc1ccccc1NC(=O)N1CC(CC)Oc2ccc(Cl)cc21 (stereo not given) | inactive: 44%
62 | COc1ccc(N2CCN(C(=O)c3c(C)nn(-c4ccc(F)cc4)c3-n3cccc3)CC2)cc1 | inactive: 69%
63 | Cc1cccc(N2CCN(C(=O)CCNS(=O)(=O)c3ccc4c(c3)CCN4C(=O)C3CC3)CC2C)c1 (stereo not given) | inactive: 75%
64 | O=C(NC1CC(=O)N(c2ccccc2)C1)c1cccs1 (stereo not given) | inactive: 94%
65 | CCOc1ccc2nc(NC3=NCCC(=O)N3)nc(C)c2c1 | inactive: 80%
66 | Cc1ccc2[nH]c3nc(NN)nnc3c2c1 | inactive: 77%
67 | Cc1cccc(C(=O)Nc2nc3c(s2)CCCC3)c1 | inactive: 67%
68 | COc1ccc(-c2nc(CCNC(=O)Cc3ccc(F)cc3)cs2)cc1 | inactive: 126%
69 | c1ccc(CNc2ncnc3[nH]ncc23)cc1 | inactive: 92%

Row | SMILES | survival
70 | CCOC(=O)N1CCc2c(sc3c2c(=O)n(CCc2ccccc2)c(=O)n3Cc2ccc(C)cc2C)C1 | inactive: 71%
71 | CC(=O)N1c2ccc(S(=O)(=O)NCCc3cccc(C)c3)cc2CC1C (stereo not given) | inactive: 84%
72 | Cc1ccc(C(=O)N/C(=C/c2ccco2)C(=O)Nc2nccs2)cc1 | inactive: 80%
73 | CCn1c(=O)c(=O)n(CC)c2cc(N3CCCCC3)c(NC(=O)c3cccc(OC)c3)cc21 | inactive: 85%
74 | CCOC(=O)c1cccc(NC(=O)N2Cc3ccccc3Oc3ncccc32)c1 | inactive: 66%
75 | COc1ccc(C2CC(=O)C(C=NC3CCCC3)=C(O)C2)cc1 (stereo not given) | inactive: 73%
76 | CCOc1cccc(NC(=O)CSc2ncc(-c3ccc(Cl)cc3)[nH]2)c1 | active: 39%
77 | COc1ccc(-n2c(=O)c3c4c(sc3n(Cc3ccccc3)c2=O)CCC4)c(OC)c1 | inactive: 50%
78 | COc1ccc(-c2cc(C(F)(F)F)nc(NCc3ccccc3)n2)cc1OC | active: 42%
79 | COc1cccc(CN2c3ccccc3-c3nc(SCC(=O)Nc4cccc(C)c4)ncc3S2(=O)=O)c1 | inactive: 50%
80 | CCOC(=O)C1CCN(C(=O)Cc2cccc3ccccc23)CC1 | inactive: 82%
81 | O=C1C(=O)N(C2CCN(C(=O)c3ccc(F)cc3)CC2)CCN1Cc1ccc(F)cc1 | inactive: 74%
82 | CCc1nnc2c3ccccc3nc(Nc3ccc(F)cc3C)n12 | active: 39%
83 | Cc1cccc(OC(C)C(=O)N2CCC(c3nc4ccccc4o3)CC2)c1C (stereo not given) | inactive: 75%
84 | CCc1ccc2oc(-c3cccc(NC(=O)c4ccc(-c5cccc([N+](=O)[O-])c5)o4)c3)nc2c1 | inactive: 58%
85 | CCOc1ccc(Br)cc1C1C(C(=O)Nc2ccccc2OC)=C(C)Nc2nnnn21 (stereo not given) | inactive: 66%
86 | Cc1cc(C)cc(OCCOCCn2c(-c3ccc(Cl)cc3)nc3ccccc3c2=O)c1 | active: 43%
87 | CN1CCC(OC(=O)Cc2ccc(Cl)cc2)CC1 | inactive: 103%
88 | CCOc1ccc(-n2c(-c3ccc(OC)cc3)cc3c2CC(C)(C)CC3=O)cc1 | active: 15%
89 | C=Cc1ccc(CSc2nc(-c3ccc(Cl)cc3)nc3c2Cc2c(CO)cnc(C)c2O3)cc1 | inactive: 70%
90 | CCCCN(CCCC)S(=O)(=O)c1ccc(NC(=O)c2c(-c3ccccc3)noc2C)cc1 | inactive: 60%
